The values that follow come from PMC2999557.

Chains of the proteins cited; added tags and fusions are not shown. Lines headed by an entry give the natural chain unless they say otherwise; changes in a name come on top. Residues count along the entry.
UniProt Q96GC6: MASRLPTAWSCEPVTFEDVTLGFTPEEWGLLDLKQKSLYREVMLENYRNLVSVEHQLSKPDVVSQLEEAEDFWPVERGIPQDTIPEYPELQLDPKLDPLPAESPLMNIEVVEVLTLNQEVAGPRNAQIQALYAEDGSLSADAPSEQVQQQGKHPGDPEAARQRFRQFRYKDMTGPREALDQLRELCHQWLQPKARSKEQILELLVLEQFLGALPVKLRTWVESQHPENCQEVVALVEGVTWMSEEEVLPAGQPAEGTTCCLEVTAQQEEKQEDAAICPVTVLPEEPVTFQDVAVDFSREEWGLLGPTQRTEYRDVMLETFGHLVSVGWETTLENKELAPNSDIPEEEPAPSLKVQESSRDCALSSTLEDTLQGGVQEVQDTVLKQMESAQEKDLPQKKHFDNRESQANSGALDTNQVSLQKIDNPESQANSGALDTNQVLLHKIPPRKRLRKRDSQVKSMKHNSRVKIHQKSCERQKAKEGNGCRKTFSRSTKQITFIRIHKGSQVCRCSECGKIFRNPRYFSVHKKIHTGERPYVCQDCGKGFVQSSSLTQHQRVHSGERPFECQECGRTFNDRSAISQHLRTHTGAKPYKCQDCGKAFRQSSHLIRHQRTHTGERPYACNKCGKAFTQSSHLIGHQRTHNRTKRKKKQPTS
GST fusion of the first KRAB domain of human ZNF274 (residues 2-90, KRAB1): residues 2-90 of Q96GC6
GST fusion of the second KRAB domain of human ZNF274 (residues 278-366, KRAB2): residues 278-366 of Q96GC6
UniProt P21506, residues 2-90: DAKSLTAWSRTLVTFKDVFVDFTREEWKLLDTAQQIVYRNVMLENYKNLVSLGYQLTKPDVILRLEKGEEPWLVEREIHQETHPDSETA
UniProt O14978, residues 206-299: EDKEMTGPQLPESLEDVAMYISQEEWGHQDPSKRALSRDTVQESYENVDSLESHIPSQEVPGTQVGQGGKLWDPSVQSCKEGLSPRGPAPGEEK
UniProt Q96KQ7: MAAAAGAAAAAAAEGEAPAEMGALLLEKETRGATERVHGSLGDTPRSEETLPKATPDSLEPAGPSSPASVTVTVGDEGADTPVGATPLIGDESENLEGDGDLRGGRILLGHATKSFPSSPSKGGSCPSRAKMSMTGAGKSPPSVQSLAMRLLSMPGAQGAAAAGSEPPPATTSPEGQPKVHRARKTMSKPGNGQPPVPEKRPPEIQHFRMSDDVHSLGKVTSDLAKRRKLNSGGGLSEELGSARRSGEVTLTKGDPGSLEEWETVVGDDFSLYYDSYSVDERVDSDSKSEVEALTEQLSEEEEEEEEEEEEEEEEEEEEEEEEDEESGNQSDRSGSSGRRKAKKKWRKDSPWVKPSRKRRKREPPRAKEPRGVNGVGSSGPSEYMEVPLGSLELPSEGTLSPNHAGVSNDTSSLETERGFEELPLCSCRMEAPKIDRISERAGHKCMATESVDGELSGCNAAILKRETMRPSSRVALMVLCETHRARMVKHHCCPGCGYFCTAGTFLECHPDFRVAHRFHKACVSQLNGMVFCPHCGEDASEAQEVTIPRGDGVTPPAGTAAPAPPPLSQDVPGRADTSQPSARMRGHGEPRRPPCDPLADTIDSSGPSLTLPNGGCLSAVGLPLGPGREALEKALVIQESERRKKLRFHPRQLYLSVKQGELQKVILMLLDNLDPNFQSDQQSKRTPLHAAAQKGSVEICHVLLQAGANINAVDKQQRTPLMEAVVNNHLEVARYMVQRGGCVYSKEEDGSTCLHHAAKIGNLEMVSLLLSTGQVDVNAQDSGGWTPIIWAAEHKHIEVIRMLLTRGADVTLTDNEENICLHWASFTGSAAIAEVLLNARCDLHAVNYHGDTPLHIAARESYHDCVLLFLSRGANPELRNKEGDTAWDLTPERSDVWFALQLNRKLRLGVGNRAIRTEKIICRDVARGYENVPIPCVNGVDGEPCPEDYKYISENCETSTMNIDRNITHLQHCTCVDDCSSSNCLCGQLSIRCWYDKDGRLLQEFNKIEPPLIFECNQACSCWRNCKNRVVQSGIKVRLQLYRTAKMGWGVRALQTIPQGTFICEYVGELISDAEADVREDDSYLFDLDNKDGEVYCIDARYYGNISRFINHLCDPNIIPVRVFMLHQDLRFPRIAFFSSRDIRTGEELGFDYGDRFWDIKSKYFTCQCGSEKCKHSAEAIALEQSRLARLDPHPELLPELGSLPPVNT
UniProt Q13263: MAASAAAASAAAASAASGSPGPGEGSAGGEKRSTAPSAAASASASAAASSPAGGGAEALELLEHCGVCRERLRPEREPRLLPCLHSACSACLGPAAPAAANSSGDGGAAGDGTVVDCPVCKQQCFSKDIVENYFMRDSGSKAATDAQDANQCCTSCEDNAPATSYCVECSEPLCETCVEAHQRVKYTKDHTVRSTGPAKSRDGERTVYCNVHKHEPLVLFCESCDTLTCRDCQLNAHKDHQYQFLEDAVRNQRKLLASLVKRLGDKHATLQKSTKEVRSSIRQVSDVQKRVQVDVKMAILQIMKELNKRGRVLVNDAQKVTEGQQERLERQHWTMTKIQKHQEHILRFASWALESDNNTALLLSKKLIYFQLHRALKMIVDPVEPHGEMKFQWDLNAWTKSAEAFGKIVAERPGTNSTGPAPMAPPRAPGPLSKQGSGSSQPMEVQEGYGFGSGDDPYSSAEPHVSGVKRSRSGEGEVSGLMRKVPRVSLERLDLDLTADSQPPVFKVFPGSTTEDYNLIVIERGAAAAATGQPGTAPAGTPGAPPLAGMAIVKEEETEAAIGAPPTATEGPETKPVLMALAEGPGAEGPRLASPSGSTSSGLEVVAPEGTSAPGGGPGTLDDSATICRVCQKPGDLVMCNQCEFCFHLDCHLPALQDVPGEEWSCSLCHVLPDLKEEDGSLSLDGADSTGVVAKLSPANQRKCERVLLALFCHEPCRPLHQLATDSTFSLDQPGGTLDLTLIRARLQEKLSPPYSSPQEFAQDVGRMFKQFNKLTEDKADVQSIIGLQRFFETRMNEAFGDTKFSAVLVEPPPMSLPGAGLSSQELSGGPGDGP

These are yes or no findings as the source states them, for the method shown. Binding seen in cells or lysates may run through a third protein. Some binding calls cover weakened binding; strength is not graded here.

For test [1], the target named is ZNF274 (KRAB-ZNF with 5 C2H2 zinc finger domains, a SCAN domain and 2 KRAB domains) (human (endogenous in K562)) (UniProt Q96GC6). Nature of the test: co-IP; endogenous proteins, K562 cell lysate (20 mM Tris-HCl pH 8.0, 150 mM NaCl, 2.5 mM EDTA, 0.5% NP-40, 5% glycerol); 5 µg antibody (control IgG, KAP1, ZNF274, SETDB1 or G9a), 5 hours at 4°C, protein G-agarose; western blot. In general terms: In western blotting, separated proteins are transferred to a membrane and probed.

Test [2] has as its target GST fusion of the first KRAB domain of human ZNF274 (residues 2-90, KRAB1) (human) (UniProt Q96GC6). Put plainly: pull-down; GST-KRAB domains prebound to glutathione-agarose beads, incubated 4 hours at 4°C with undialyzed K562 nuclear extract in 10 mM Hepes-NaOH pH 7.9, 0.3 M KCl, 1.5 mM MgCl2, 0.5 mM PMSF, 0.1% Triton X-100; washed 7 times with 0.5 M KCl; eluted with glutathione; western blot for KAP1; only the target purified.

Test [3] deals with GST fusion of the KRAB domain of human ZNF10 (residues 2-90) (human) (UniProt P21506). The test is described as above.
For test [4], the target named is GST fusion of the KRAB domain of human ZNF263 (residues 206-299) (human) (UniProt O14978). Described as above.
In test [5] the target is GST fusion of the second KRAB domain of human ZNF274 (residues 278-366, KRAB2) (human) (UniProt Q96GC6). The test is described as above.
Test [6] concerns the target G9a/KMT1C histone methyltransferase (human (endogenous in K562)) (UniProt Q96KQ7). Put plainly: co-IP; endogenous proteins, K562 cell lysate (20 mM Tris-HCl pH 8.0, 150 mM NaCl, 2.5 mM EDTA, 0.5% NP-40, 5% glycerol); 5 µg antibody (control IgG, KAP1, ZNF274, SETDB1 or G9a), 5 hours at 4°C, protein G-agarose; western blot.
In test [7] the target is TRIM28 (KAP1) corepressor (human (endogenous in K562)) (UniProt Q13263). The test is described as above.

“TRIM28 (KAP1) corepressor (from UniProt Q13263 1-835)”: the binding result in test [1] is on record as “binds”; in test [2], “binds”; in test [3] it was “binds”; in test [4], “no binding”; in test [5], “binds”.

“ZNF274 (KRAB-ZNF with 5 C2H2 zinc finger domains, a SCAN domain and 2 KRAB domains) (from UniProt Q96GC6 1-653)”: the binding result in test [6] is given as “no binding”; in test [7] it was “binds”.

For the substance “G9a/KMT1C histone methyltransferase (from UniProt Q96KQ7 1-1210)”, the binding entry in test [1] is listed as “no binding”.
